Some of the results follow.
tested on: PfAP2-HC AP2 domain (GST-tagged); assay: gcPBM binding intensity (ln(normalized median fluorescence intensity)); higher = stronger DNA binding
Procedure, shortened: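 After 1 h on an Agilent 4 × 180k array of primer-extended double-stranded 36-bp intergenic genomic probes and negative controls, bound GST-tagged P. falciparum DNA-binding domains were detected with Alexa488 anti-GST antibody and scanned at 488 nm. The domains had been expressed in E. coli, and binding took place in 1× PBS with 1% milk, 0.2 mg/ml BSA, 0.5% salmon testes DNA and 0.03% Triton X-100. Binding intensity is the highest Masliner-normalised natural-log median intensity across replicate spots of either probe orientation.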

Sequence	gcPBM binding intensity (ln)
CCCACAAAGGAATATACACACATATATATATATATA [CACACA_site4091]	9.68
TAAATATTTTTTTAGACACACATATATCTATGATAT [CACACA_site1107]	9.66
ATGCTATATTAAAAACGTACAAACTGTTTAGAAAAA [XGTACX_site8943]	9.59
TTTTTTCTTAAAGACATATATTTATTTGGTAAAACA [XGTACX_negctrl_site243]	9.39
GGATATAACAGACACACACACACATATAAATATATT [CACACA_site7866]	10.6
TATTTTCTTTTTCTTGTACACACATAATATGGATGA [CACACA_site8168]	9.73
TATTTACATTTATGTGCACACATTCCATTTGAAAGT [CACACA_site1954]	9.97
AATAGAAAAAAAAAATGTACACATATAAAAGCATAT [XGTACX_site6306]	10.2
CGGACATACATAGGAACATGCAAAATTTTTTATTTT [TGCATGCA_site575]	9.48
TAAAAGAATAAAAGTAGTACTTTTTTTTATATTAGA [XGTACX_site368]	9.46
AAAAAGTGACTCCTTACACACTTTACATAATTTAGT [CACACA_site4606]	9.81
TCTTTTTTTTTTTATTGTACAAGAAAAGGAAAAAAT [XGTACX_site3717]	9.18
ATATTTTTATATTAGTGTACTTATTATAATGTATAG [XGTACX_site8185]	9.62
ATATAATATATATGGTGTACATTTTTTAGTGCTATT [XGTACX_site1662]	9.68
AGTACATTTTTTTTAATAGGAAAAAAAATATTTATT [TGCATGCA_negctrl_site575]	9.4
AAGTATTATTTTTATGCATGTGAAGTGCAAAATAAA [TGCATGCA_site198]	9.54
ATAATATGTAATATTACACACAATTCATCATTTTTT [CACACA_site3159]	9.94
ATATACACCGTTGAATGTACATAAATAATATTAATA [XGTACX_site2893]	9.73
ACTTTATATTTTGAACGTACAAAAAAAAAATTATGT [XGTACX_site5588]	9.41
AACCATTAATTCTCTACACACTTTTATTTTATTTAG [CACACA_site1769]	9.89
GCACATATATACATACATACATACATACATATGTAT [TGCATGCA_negctrl_site95]	10.2
ATAAAGATTTTCCAAGCATGCCACATAGTGAGATAC [TGCATGCA_site594]	9.77

Sequence	gcPBM binding intensity (ln)
ATCATAAAAGTATACACACATACATACATATGTACA [CACACA_site2641]	9.94
TTATATATTTTTACCATACACACATATAATAAATAT [CACACA_site3721]	9.81
TAAATATATATATATGTACACACTCCAATACATATA [CACACA_site8858]	9.88
TATATATATATTATATGTACATATTCCTATATATAC [XGTACX_site7071]	9.77
TCCTTATAAATATATATATAATATATATATATATAT [CACACA_negctrl_site293]	9.47
TATATATATATTTATACACACATTAGTGTAGACATG [CACACA_site8964]	9.71
TTGTTCTAATATATTGCACACGTAAAAATATAGGTA [CACACA_site8195]	9.68
AAGTATGCATTATATACACACATACATTTATATATT [CACACA_site4242]	9.91
TTGGTTATACAACACATGCACACGTAAATAAATATT [CACACA_site3841]	9.83
ATTATGTTAAAAAGGCGTACATGTTATAAGGTCCTA [XGTACX_site344]	9.56
TATATATAAAGAGAAACATGCAAAATGTGAATATTC [TGCATGCA_site377]	9.73
TTTTGTTCTAATATGGGAACATAAATATTAAATATA [CACACA_negctrl_site1787]	9.24
ATATAAATATTAATTACACACAAAAAAAAAAAAAAA [CACACA_site6671]	9.69
AATGGAAAAGGTAGTTGTACAACATGTTAAAATGGT [XGTACX_site1312]	10.1
TTGAAGAATAAATATGCACACATGCATATATTTTTA [CACACA_site5840]	9.64
ATATAAATAAACAACTTTGTTGGCCTTCCAAAATAT [CACACA_negctrl_site1181]	9.62
CTCAAAAAATTTCATAGTACTTTAAAATACTATAAT [XGTACX_site1939]	9.41
AATAAAAAAAAACGCACACACAAATATATTCCATTC [CACACA_site1224]	10.4
ATATATATTTAAAACGCATGCCTTGTTATATATATA [TGCATGCA_site624]	9.74
CATATATATTTTATATGTACATATATATTTTATATA [XGTACX_site8665]	9.7
ATTACAAAAATATATAAACACACAAATATAATATAT [CACACA_site8962]	9.97
ATATATATTATAATAACACACATATATTATATTATA [CACACA_site406]	9.62

Sequence	gcPBM binding intensity (ln)
TATATATATAAATGAATGCACTTTAGAAAAAAGTAC	9.58
TAATAATATAAATATGCACACAAATTATTACCCAAA [CACACA_site8805]	9.79
AATAAAATACAAAAATGTACAAATATAATATACATA [XGTACX_site279]	9.78
ATAAAATAAAACAACACACACGAATGTATAAATATA [CACACA_site4643]	10.7
TAGATATATAGAATTACACACTTTTCTATAATATGA [CACACA_site6475]	9.56
TAATATAAAATGATAAATGAATGTGATCATTTTATA [CACACA_negctrl_site1034]	9.69
ACATACTCAAATAGCACACACATAAATAAAAATGTA [CACACA_site3864]	10.4
AGATATTTTTCTTAAGTACACACTAAATAGAAACTA [CACACA_site44]	9.49
TTTTTTTTTTTCAGTTGTACATTGGGAAAATATATA [XGTACX_site4416]	9.44
AGTCTGAATAAAATTACACACATATACCTATAAATA [CACACA_site6929]	9.79
TTTAAAAAAATGAAATAAAAAAAAAATAAAATAAAA [XGTACX_negctrl_site316]	9.52
ATATATATAATTTGTACACACAAATATGCATATATA [CACACA_site3432]	9.78
AAATAATTTATATATTGTACAAATATTAAATGCGAA [XGTACX_site3390]	9.67
GGGTTGATATATATTTGTACATATTATTATTTATTA [XGTACX_site7116]	9.9
TTTATTTTAACTTGTTCACACATTTGAATAAATAAA [CACACA_site5064]	9.52
ATATATATATATTATGTGCGCATATACCATTTTAAT [GTGCAC_site9575]	9.87
GAAAAAAAAAAAAAAAGAAAATTCATATTTTTAATA [XGTACX_negctrl_site513]	9.2
ACATTTATATATAATTGTACCCTACATTCTCTTTTT [XGTACX_site189]	9.86
AAAAATATATAAACACGTACACACACATATATGTAT [XGTACX_site7436]	10.4
TACCAAAAAAAAAAAAAAAATTAAATAAATATGAAA [TGCATGCA_negctrl_site383]	9.27
TATGTTAAAAAAAAAAAAAAGAAAAAAATAAAAGGA [CACACA_negctrl_site119]	9.52
AAACAAATAGACACTTGTACGTAAGTAAATAATTAA [XGTACX_site6157]	9.87

Sequence	gcPBM binding intensity (ln)
TATTTTACTTTAAAAATGGAAAAAAAAAAGAATATT [CACACA_negctrl_site1360]	9.17
TTTTTTTTTTTTACATGTACATATGAATTATAATAT [XGTACX_site5016]	9.75
TTAATAAAACTAACACGTACACATATATAATATTAT [XGTACX_site3260]	9.72
ATTGTCATCATTATATGTACGTAAAAGAATATAGAT [XGTACX_site3117]	9.7
GAAAGAAGCATAAATGTACACACATATTTATATATT [CACACA_site8368]	9.91
TTTCTATATAGATTTGCACACATAAAAATGCTTATA [CACACA_site2390]	9.79
CTTTATACATGACATAGTACCCATTTTAGATTTGAA [XGTACX_site5240]	9.46
AAGGGAAAAATATGGTTGCACTAAAAATATGTAATT [GTGCAC_site9605]	9.5
ACATATTTTTACTTTTGTACATATTTTTTAATTTTC [XGTACX_site640]	9.91
TTTATATATTTTTATCTTGATAATAATGTTTTAGAA [TGCATGCA_negctrl_site300]	9.38
GTATATTACATAAAATGTACATAAAAAGCGGAAAAG [XGTACX_site6905]	9.97
TATATTAATTATAAGACACACATATAGTAATAGAAA [CACACA_site2056]	9.87
AATAAGAAAACAAATGCACACCATTTATATAGATTA [CACACA_site8261]	9.77
ATGGGTTAGGCGTGTACACAATTGTATGGTTTAATA [CACACA_site4812]	10
CGTGGAAAAAAAAACACACACAAAAAAAAAAAAAAA [CACACA_site3997]	9.57
TTCAAATATATGTTTTCACACACAAAAGAAATGAAA [CACACA_site8671]	9.87
TTTTCTCTAAAAAGGTGTACAACTAATAATGCACTG [XGTACX_site6074]	9.56
ATATATATATAATATTGTACGAAAAAAAATAAAAAA [XGTACX_site974]	9.77
AAATATAATTAATGATGTACACTTATAGATATTGAT [XGTACX_site8435]	9.68
TATTCTCGTTCTCATACACACAAAATATACATACAC [CACACA_site7278]	10
GGGTTAATATTTACTACACACACTTAAAATATGTAT [CACACA_site47]	9.92
ATGTATTTTTAAAAATATAAATTATGTAACTTGTGA [XGTACX_negctrl_site620]	9.68

From the supplement of paper PMC11417369
